According to the supplement of paper PMC3334620:
Over roughly 33,000 sequences, “E-score (-0.5 to 0.5)” has its median near -0.053; the highest 2% begin near 0.37. The list shows a part of the results.

Biological target: Hap1 (UniProt P0CE41)
Test: PBM E-score (8-mer binding enrichment) (E-score (-0.5 to 0.5)); higher = stronger / more preferred TF binding; most listed sequences are background and not binding sites
Conditions: protein concentration: 200 nM; construct: GST-DNA-binding domain
Summary of the method: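 Yeast transcription factors carrying a GST tag, as full-length proteins or DNA-binding domains, were produced by PURExpress in vitro transcription/translation. About 100-200 nM protein was applied to universal all-10-mer Agilent arrays, double-stranded by primer extension on fresh or once-stripped slides. Bound protein was detected with fluorescent anti-GST, and scans were normalised with masliner. The Universal PBM Analysis Suite gave each ungapped eight-base word, pooled with its reverse complement, an E-score, a modified Wilcoxon-Mann-Whitney statistic.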

Sequence of UniProt P0CE41 (P0CE41 whole entry): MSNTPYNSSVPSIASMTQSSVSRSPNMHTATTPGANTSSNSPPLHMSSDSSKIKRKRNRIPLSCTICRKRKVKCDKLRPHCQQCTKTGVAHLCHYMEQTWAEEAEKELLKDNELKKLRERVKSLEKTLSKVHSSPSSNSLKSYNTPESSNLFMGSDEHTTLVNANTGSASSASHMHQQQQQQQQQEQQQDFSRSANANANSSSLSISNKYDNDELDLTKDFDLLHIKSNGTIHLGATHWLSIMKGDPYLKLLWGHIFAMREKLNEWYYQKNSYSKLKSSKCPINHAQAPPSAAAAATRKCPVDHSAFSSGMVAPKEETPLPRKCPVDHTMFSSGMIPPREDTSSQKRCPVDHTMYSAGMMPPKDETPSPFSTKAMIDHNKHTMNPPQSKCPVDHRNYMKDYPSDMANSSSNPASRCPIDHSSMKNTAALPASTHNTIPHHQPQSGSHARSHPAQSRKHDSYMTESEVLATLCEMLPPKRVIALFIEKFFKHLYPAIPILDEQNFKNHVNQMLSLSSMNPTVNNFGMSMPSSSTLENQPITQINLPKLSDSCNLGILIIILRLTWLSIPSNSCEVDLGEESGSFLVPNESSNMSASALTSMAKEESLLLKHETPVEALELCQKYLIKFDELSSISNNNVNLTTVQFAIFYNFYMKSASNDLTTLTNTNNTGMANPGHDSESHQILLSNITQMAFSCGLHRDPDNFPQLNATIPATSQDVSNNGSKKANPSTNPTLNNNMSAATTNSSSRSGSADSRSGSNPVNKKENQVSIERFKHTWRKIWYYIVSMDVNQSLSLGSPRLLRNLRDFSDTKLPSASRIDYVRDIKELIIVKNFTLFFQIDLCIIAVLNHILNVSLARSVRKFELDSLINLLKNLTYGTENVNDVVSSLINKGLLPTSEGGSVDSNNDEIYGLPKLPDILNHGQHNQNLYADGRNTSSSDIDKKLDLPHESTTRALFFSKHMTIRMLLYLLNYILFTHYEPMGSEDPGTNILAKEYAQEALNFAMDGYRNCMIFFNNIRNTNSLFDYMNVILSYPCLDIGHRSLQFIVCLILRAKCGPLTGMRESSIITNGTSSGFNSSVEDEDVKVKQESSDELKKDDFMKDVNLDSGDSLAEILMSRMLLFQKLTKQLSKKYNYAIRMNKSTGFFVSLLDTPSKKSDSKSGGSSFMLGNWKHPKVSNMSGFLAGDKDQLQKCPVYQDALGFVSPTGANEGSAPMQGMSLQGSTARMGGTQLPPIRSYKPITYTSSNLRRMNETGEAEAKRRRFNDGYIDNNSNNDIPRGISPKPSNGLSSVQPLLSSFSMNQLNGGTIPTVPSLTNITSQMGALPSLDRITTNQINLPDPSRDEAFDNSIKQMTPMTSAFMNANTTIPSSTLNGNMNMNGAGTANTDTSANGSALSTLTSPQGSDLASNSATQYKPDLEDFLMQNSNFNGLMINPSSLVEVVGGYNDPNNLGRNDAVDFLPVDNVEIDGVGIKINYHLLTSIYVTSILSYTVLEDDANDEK

Sequence | PBM E-score
CCTAGCCC | -0.0624
GAGGAGCC | -0.252
CGTTGATC | -0.0423
CACAGGCA | -0.245
AACGGAGA | 0.357
ATATCGCG | 0.314
CGTGCGTC | 0.107
CATTCACC | 0.228
CAAGGCTG | -0.416
GGCAGTCA | -0.0785
AACGTACA | -0.191
CGGCCGGC | 0.422
GGTAACTA | 0.166
CAGGAAAG | -0.244
CCTAAAAG | -0.318
ACGCGTGA | 0.0483
ACTGTGGC | -0.309
AACGGCTC | 0.199
AGCTGTCA | -0.173
CGCCTTAG | 0.0658
CTCCACTC | -0.28
AACGCCCA | 0.0103
CAGAAACC | -0.0171
CACAGGGA | -0.198
CGTTCGGA | 0.412

Sequence | PBM E-score
AGCTCTAT | -0.177
AGGTAAAC | 0.0335
CGTGCAAG | -0.176
GAATCCAC | -0.109
CATATCCG | 0.343
CAACGTGC | -0.179
ATATAGCG | 0.0252
CTCCGTCC | 0.307
AGCACCAT | -0.246
GACAGCGA | -0.0893
GGATCACC | 0.05
CTTAATTC | 0.15
GGTTATTA | 0.145
ATCACCCA | -0.0238
GTACGACA | -0.02
ACCTATTG | -0.136
GGAATCCC | 0.0567
GCGGCTCC | -0.0125
AGCACCCG | 0.13
CCGTGGCA | 0.0571
ACGAATAT | -0.0622
CGCTTAGC | 0.0439
AGGGACAC | -0.121
GGGGCTTA | 0.186
CAGTCTGC | -0.192

Sequence | PBM E-score
ACGATAGC | 0.0603
AAACACCG | 0.388
AGCGACGC | -0.0688
ACTTTAGA | 0.0341
ACTTCACG | -0.182
ACGCATTC | 0.0114
CACAGATA | -0.256
AAAAGCAT | -0.0584
AATTCCGC | 0.336
ATGACCAC | -0.0995
GATTCAAC | 0.0615
GTGCGGAA | 0.159
GGACCATA | 0.124
ACCGATGA | 0.223
ATACAACC | 0.0766
CCCATTCA | 0.0364
ACTTGAAA | -0.0915
AGGTTGTG | -0.338
ATGGCCGC | 0.19
CACGTAGA | -0.228
CGTTTGGC | 0.0309
GAACCCCA | 0.117
CGACTAAC | 0.0846
GCATACTA | -0.0297
CCTACCAG | -0.269

Sequence | PBM E-score
CCTAGCTA | -0.374
CCGGGTCA | 0.3
CACATTTA | -0.286
CAGAAAGA | -0.208
TGAAATCA | 0.0166
ACCGTTAA | 0.287
GAGTTTGA | -0.00172
ACGGAAAC | 0.287
ACCTGGCC | 0.0949
CATATACG | -0.0979
ATTTATCG | 0.281
CGAGTGCC | 0.00199
AACAAGGA | -0.0118
GGAGCTCC | 0.233
CCTGGGCG | -0.102
GGTCGGCA | 0.209
AAGAGGCT | -0.249
ACATCTTC | 0.0163
GATCGCGC | 0.043
TCCCTAGA | -0.182
CAACCTGA | -0.389
CGTTCATA | -0.17
CACGATAA | 0.087
CATGCCGC | 0.177
ATCATCGA | -0.0995

Sequence | PBM E-score
TACGCAAA | -0.32
ATAGAACG | 0.0373
AGTCGAGA | -0.0928
AAAGGCAG | -0.113
TAGTGGCA | -0.154
CAACGATC | -0.0496
TCAACGGA | 0.254
CGACGGGA | 0.189
AGTAGTAA | -0.182
AGATATCG | 0.315
AGGGACCG | 0.0343
CACTGTGA | -0.239
CTCTTGAA | -0.265
AATTAGAC | -0.199
ATGACTAG | -0.21
AGGAGCGA | -0.0207
ATTGGTCA | -0.0998
ATCCGGCA | 0.329
AGCATAAT | 0.0753
GCCCTCTA | -0.18
AAAACATG | -0.101
CAGTTACA | -0.0624
GCAGGGCA | -0.116
ACGCTCAG | -0.265
CTCTCGAC | -0.242

Sequence | PBM E-score
GCGATTCA | -0.0223
AGCTGATC | 0.0339
CCGATCTC | 0.278
CGGTACAG | 0.157
AAGGACCT | -0.123
CGGTTAAG | 0.146
AGTGAATC | -0.0162
GCAAGAGC | -0.151
GAATCCCC | 0.109
CACATCCG | 0.278
ACTCAGTC | -0.249
GCCAGTCA | -0.163
CGATGACG | 0.202
ATTTGGTC | 0.141
ACATAACC | 0.0716
ACGCATCC | -0.0512
CCTTTTGA | -0.0628
CAGCGTGG | -0.191
CACTACCA | -0.0953
AAGTGTGC | -0.132
GCTGTTAC | -0.067
AACCAACT | -0.06
GTAGAGAC | -0.193
ACCACACG | -0.344
GCCTGGTA | -0.224

Sequence | PBM E-score
CATGGAGG | -0.321
CTAGCGCC | 0.0602
GGTCTAAC | 0.102
GCCGAGAA | 0.362
AGTTTCTA | -0.167
CTTTCAGC | 0.0716
TCGATTAA | -0.157
AGTGCGCC | 0.0517
CGGCTATA | 0.383
AACCCCTT | -0.0725
CTCCAAAA | -0.172
CAAGCACC | -0.077
GACTCGAC | -0.137
CTTACCTA | -0.171
GAGTAGGA | -0.0973
AAGATATC | 0.0169
CAACTAGA | -0.116
CTATTTGC | 0.0173
CCTCGTTA | -0.198
GCGGCTTA | 0.131
GTCAAATA | -0.156
CTTATATA | -0.0566
AAATTACA | 0.0171
CGCACTTC | 0.0529
AGGGGAAA | -0.129

Sequence | PBM E-score
AACTGCGC | -0.0367
CCGTGACG | 0.16
AATTGGCG | -0.104
GTAGCCAC | -0.194
GATGATGA | 0.00542
AAGATTTG | -0.12
CAACGTCC | 0.117
AAGATTGT | -0.132
ATTACTCC | 0.174
GATTAGAA | 0.0297
CTTCAGAC | -0.277
CTATGTTA | 0.0956
CCGTTTAC | 0.148
CATGTACA | -0.238
CACGGCTC | 0.093
GCGTACAA | -0.22
ACTATGCG | 0.0886
CTCGCATC | 0.0149
AGCATGAA | -0.127
AATGGTCT | -0.061
ATGACCTC | -0.155
ACTCAGCG | 0.00119
GGGCAAGA | 0.214
AGTGGAGC | -0.224
ATAAATCA | -0.147

Sequence | PBM E-score
TATGCCAA | -0.144
CCGGTGAA | 0.218
CGGAGCTA | 0.443
AGGTGGCA | -0.131
CTACGGAA | 0.17
AACTTGAC | -0.201
GCATTAGA | -0.112
CCCTGCAC | -0.198
GCGCCGAC | 0.227
GGATACCA | 0.167
GATACCGA | 0.185
GAGAGTAC | 0.0133
AGGGAGTC | -0.324
AAGGTCGT | -0.281
AAAGCCTC | -0.104
GGGCTGGA | 0.0689
CGTTCAAG | -0.0615
ACAGTGGC | -0.0988
GCAGAGGA | -0.252
